Over roughly 33,000 sequences, “E-score (-0.5 to 0.5)” has its median near -0.032; the highest 2% begin near 0.36. The list shows a part of the results.
Target: T1, Sko1 (UniProt Q02100)
T1 sequence: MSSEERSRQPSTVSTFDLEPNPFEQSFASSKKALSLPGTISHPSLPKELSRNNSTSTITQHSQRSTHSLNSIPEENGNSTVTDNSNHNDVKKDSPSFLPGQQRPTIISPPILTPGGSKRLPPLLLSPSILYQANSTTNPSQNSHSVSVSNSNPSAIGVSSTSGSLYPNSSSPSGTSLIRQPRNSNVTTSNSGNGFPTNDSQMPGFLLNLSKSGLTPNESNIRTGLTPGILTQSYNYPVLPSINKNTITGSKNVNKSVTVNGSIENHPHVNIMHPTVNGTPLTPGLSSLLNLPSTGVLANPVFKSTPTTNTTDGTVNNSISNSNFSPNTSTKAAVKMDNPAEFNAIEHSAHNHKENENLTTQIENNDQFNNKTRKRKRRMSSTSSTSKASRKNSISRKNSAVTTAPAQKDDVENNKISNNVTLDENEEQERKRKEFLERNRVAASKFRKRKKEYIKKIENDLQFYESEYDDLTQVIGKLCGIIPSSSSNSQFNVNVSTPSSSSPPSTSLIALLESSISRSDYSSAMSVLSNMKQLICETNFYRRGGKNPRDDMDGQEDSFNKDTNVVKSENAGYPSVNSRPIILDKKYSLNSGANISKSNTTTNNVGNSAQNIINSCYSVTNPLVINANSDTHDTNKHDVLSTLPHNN
Experiment: PBM E-score (8-mer binding enrichment) (E-score (-0.5 to 0.5)); higher = stronger / more preferred TF binding; most listed sequences are background and not binding sites
Details: protein concentration: 200 nM; construct: GST-full length
In short: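 Masliner-normalised scans of fluorescent anti-GST signal were the basis for scoring. That signal came from GST-tagged yeast transcription factors applied at about 100-200 nM to double-stranded universal all-10-mer Agilent arrays on fresh or once-stripped slides. Each ungapped eight-base word, pooled with its reverse complement, received an E-score from the Universal PBM Analysis Suite.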

Sequence	PBM E-score
CATGAGCC	-0.189
ATTGGGGA	-0.136
AATCACTA	0.0894
TGCAGCCA	-0.191
AGCCTTCA	0.0137
CTAGTGAC	0.141
AACCACTA	-0.0789
GCTTAACC	-0.0972
GAGTAAGA	0.0882
GGACGGGA	-0.222
GTTCCTGA	0.0292
AATATGAT	0.254
AGTGACGC	0.416
CGCTTTTA	0.169
ATCACGGC	-0.102
AGTGCAGC	-0.175
ACGATCGA	0.0779
CTAGAGGC	-0.204
CCGTCTCG	-0.0203
GTGCCGGA	-0.244
CTGTCGGA	-0.0296
AACATGGG	-0.0376
GGCATAAC	0.0858
AGATGCTA	0.115
ACACGTGG	0.356

Sequence	PBM E-score
ATGACAGG	-0.143
AAATGCAT	0.0597
ACAAGTCA	-0.168
CCAATCGC	-0.229
AGCAAGGC	-0.269
TCCAGCCA	-0.237
ACCCTTGG	-0.285
TACAGTGA	0.158
TGCAGGCA	0.0629
AACTTGCT	-0.19
TATTCCGA	0.0478
ATTACGTC	0.492
CGCATAAC	0.245
TACTGCAA	0.0647
ACCTGGAG	-0.148
GCTCGACA	-0.181
CAGGCCTC	-0.423
GACTTCCC	-0.161
CGAAACAC	0.153
AACAAGGC	-0.201
CACGATTC	0.0829
AGAAATGA	0.113
TACCAGAA	-0.0119
ATGACCCC	-0.25
CGTTCGAC	-0.0502

Sequence	PBM E-score
ACCGACTC	-0.271
GGGCTGAC	-0.00802
AAGTAGAG	-0.0678
CTATTACC	-0.137
ACGGGTAC	-0.0904
CCAGTGGC	-0.185
TAAAATGA	0.243
AAGGTCGG	-0.226
ACACATCT	-0.00947
CCCACTAA	-0.0314
AATAAGTG	0.0221
AGCTTCTA	-0.227
CAGAGTCC	-0.11
CCCAGCTC	-0.414
GAATCCTC	-0.194
CGTGGCAC	0.148
CTTTAGGC	-0.1
ACGTACAA	0.414
CCCTAGCC	-0.205
GCCCGGCA	-0.33
ATGACGCA	0.492
CTCAACGA	-0.0282
ATGGGAGG	-0.185
TACAGCGA	-0.12
CGGGTGTA	-0.257

Sequence	PBM E-score
GCTTTCCC	-0.253
CTTGTACC	-0.0456
AAGGTTAC	0.094
AAATGGCT	-0.0674
ATTCAATG	0.133
ATCGTCTC	-0.0603
ACTACTAC	0.0419
AGCTCGTA	0.172
TGCATGCA	-0.0609
CCAGCCAA	-0.0361
AGCTCACT	-0.16
CGTTGCTA	0.153
AGTTCGTG	0.0924
AGCTATCG	0.0005
CTTAACGA	0.0673
CGTGTTGA	0.229
CGCGGCAA	-0.171
GTACTTGA	0.126
CCTCGTAG	0.102
ATTTCATA	0.124
ACTACATG	0.151
GTCAGGCA	0.0902
CGGATACG	0.242
ATCTACGG	-0.0475
CAGTCGGC	-0.295

Sequence	PBM E-score
ACAAAGAG	-0.231
CAGTGATG	0.195
AAAAAATC	0.072
ACTTGGAC	0.0279
GGGGGGAC	-0.298
CCGCTGAG	-0.29
ACCTGCCG	-0.175
ACCTTCTC	-0.22
AGCGGCTA	-0.0414
ATTGCGCC	-0.0972
AGACATAG	-0.0472
TCAATGAA	0.092
AGAACACA	0.128
AGGTTAGC	-0.163
CTATGTGA	0.154
CGAACATA	0.113
GGATCCCA	-0.0813
GCACCTAC	-0.102
TAGACCAA	-0.0515
CAGTCAAG	-0.0856
AGGAGTAC	-0.0519
AATTTTAT	0.23
ACCAATGA	0.0754
CACCATTC	-0.0698
AGTCCGAA	-0.115

Sequence	PBM E-score
ATAGTTGG	-0.0293
AATAAGAG	-0.0433
CCCAAGGG	-0.408
ACCGGGAC	-0.177
GTGACGAA	0.446
TGCGTAAA	0.404
TATGCTCA	0.0932
ATGTCCAA	0.0296
GCTGTGAA	-0.217
CCTTGCAA	-0.328
CCCAACCA	0.0349
ACAGGTTA	0.0312
ATTCAAAC	0.129
ACGGGAGA	-0.175
AGTAGTCG	-0.0397
GTTCACCA	-0.0203
AATTCATC	-0.0881
AGCCCCAG	-0.339
AATGAGCA	0.152
GAAAACCC	-0.237
GCGAAGAC	-0.257
CGTTCTTC	0.0489
GATAATAA	0.0251
CGGAAGTA	-0.19
CGGGCATC	-0.324

Sequence	PBM E-score
GATATTGC	0.022
CCCCACCG	-0.273
GCCGAAGC	-0.233
AGGTGCCG	-0.247
CGCTAAAC	0.103
CAGTAAGC	-0.0667
ATGCCCAG	-0.296
CCGTAGAG	-0.258
CCTTATTA	0.184
AAGGCATT	-0.134
CCCCAGAG	-0.261
ACCCACTC	-0.123
AATTGACT	-0.0553
AAAGGTGT	-0.138
CAGGACTC	-0.0403
CACGTACC	0.407
ATCGGCCA	-0.181
ACCAGCCA	-0.235
GACGACGC	0.241
CGTGTCAC	0.268
AGCGGTCG	-0.171
ACCTCCCA	-0.257
AAACTTGC	0.12
ATGTTCTA	0.0474
ACCCACAA	0.00178

Sequence	PBM E-score
GACTGACC	-0.166
AGAGCAGC	-0.173
CAACTCGG	-0.214
TCCATTCA	-0.0378
GGCTGCTA	-0.177
AGTGCCAT	-0.134
GACCAATA	0.0125
GCACTAGC	-0.143
CCGCCCTC	-0.23
CCGTCGGA	-0.0879
CAAGTTTC	0.0422
ACCATGCT	-0.0226
CTAGCTGC	-0.201
CCTGTCCG	-0.0997
CGGGAGCC	-0.265
GGAAGGCC	-0.252
GTGCAAAC	0.00584
CCTGCTTC	-0.195
CATATGCA	0.168
GTGTAGCA	-0.0576
ACCCAAAG	-0.0205
CAAGAGTG	-0.148
CGTCAACA	0.323
AGCTTAGA	-0.009
AGGTGATA	-0.121

Sequence	PBM E-score
TACGAAGA	0.161
AGCTTACT	-0.0585
ACATATTG	0.127
AAGGCAGC	-0.141
CCAGAAAG	0.0379
CACCCGGG	-0.242
CAGCAACA	0.0646
AGGCACCC	-0.278
CCGGGCAC	-0.318
ATCAATCG	0.21
CGATGGTC	0.0498
ATTCGGAG	-0.0893
CCTTGTAG	-0.147
CATAATGA	0.289
GGGCCCGA	-0.0786
CTCTCAAG	-0.0391
ATTGTGCA	0.076
GAAGTCAC	0.0364
AGCTCTTC	-0.135
ATCGACTG	-0.122
TATTTACA	0.235
CTCCCCCC	-0.197
TCAAAACA	0.0876
CTTTTCGC	0.124
TCCGACAA	-0.0439

Sequence	PBM E-score
CCTGCCAC	-0.147
TATAAGAA	0.0806
CGGGTGAG	-0.217
AATTTGTC	0.147
ATGCTCTA	-0.14
CTTATAAG	-0.174
GAATGAAA	0.051
ACTAGATG	0.0325
CGGTGTCA	-0.0493
AACACTCC	-0.0803
AAAGCTCC	-0.162
CCCCGGCG	-0.242
ACCCGCTG	-0.242
AACGGGTG	-0.174
CTCCGACC	-0.408
AGCTAAGC	-0.188
CAACTCCG	-0.0221
ATCCGCAA	-0.0993
CTCTTGCC	-0.0193
AACGTAGA	0.357
TCACTCAA	0.0033
AAACGGGC	-0.131
ATATTTCG	0.235
AAGTATGC	-0.0547
GCTTACCC	-0.365

Sequence	PBM E-score
ATGCCGTC	0.125
GCTTAATA	0.0235
ATGGTCTG	-0.0945
CATTCGAA	0.106
ATTCGTTG	0.0792
GATGTAAC	0.229
GATGGGAC	-0.215
TGCCGGAA	-0.0998
AAATTCCG	0.0779
GATCCACA	-0.0832
GCTGTTTA	0.0734
TCACACCA	0.12
GACGACTA	0.0238
ACACTATC	0.0147
AGCCGGTC	-0.119
CAGAATGC	-0.171
CCTCTCCA	-0.204
CGTCTTCA	0.202
ACGGGTGA	-0.0676
GCCCACGC	-0.12
ACGAGTCA	0.00223
AAATGTAC	0.171
CATAATTC	0.238
CGAAGAAA	0.0872
TAAACTAA	0.23

Sequence	PBM E-score
AGTGATCC	-0.194
CCGGGAGA	-0.315
CAATTTAC	0.132
GTCTTAAC	0.081
CCCCAGTA	-0.235
ATAGGCTC	-0.0336
CCAAGAGC	-0.203
CCGAAACG	0.0669
CGTAGTGC	0.31
GATATGCC	-0.224
CGAGAACA	0.0508
CCGAGCAA	-0.0691
CAGATAGA	-0.0614
GGAAGCCA	-0.422
CCGTGGTC	-0.235
CCGCACCA	-0.0308
AGTATAGA	0.0171
AATGTACG	0.246
AAGACAAT	0.0764
CCTTCTAC	-0.144
ACAGTTCC	-0.224
GTGCTTCA	0.0642
CGCGGCCG	-0.196
CTTCTTGC	-0.051
ACGCCCCA	-0.096

Sequence	PBM E-score
CGCCAGCC	-0.206
ACACTGGC	-0.147
GGGAAGCA	-0.156
CGGCGGAC	-0.233
TACAGAGA	-0.156
CGTTCCAG	-0.0778
ACTTGGGG	-0.268
CCAGAGAA	0.0433
GCAACTGC	0.131
AATGCCCA	-0.173
ATCTCGGC	-0.191
GCCCATTA	-0.0116
ACAATAAG	-0.0356
CAAAAAAC	0.128
GACAAACC	-0.169
ACGCACGG	0.215
GACTCATC	-0.0097
CAGGTGCC	-0.236
ATTCGGTA	0.185
AGATGGAC	0.0798
GTCGATAA	-0.00607
CAACTTGA	0.12
ATGGGGGA	-0.249
ACTGAGCA	0.0376
AAAGAAGT	-0.0616

Sequence	PBM E-score
TCATCACA	0.157
AACGAATT	0.197
GAAGATTA	0.0617
TAGGTGCA	0.00381
ACACAGCT	-0.139
CCAACAAA	0.0828
GAAGAACA	0.0683
ACAGGAAG	-0.149
AAACCTAA	0.103
GCTAACCC	-0.201
CCCAGCAA	-0.111
GTCAAGGA	0.0614
CGAGAGGA	-0.042
ATAGCTAG	-0.118
CGACGGTA	0.017
CATTGCAG	0.0387
AGTTGACC	-0.231
CCAGAGAC	-0.251
GATTTCTA	0.0392

Reference: the supplement of paper PMC3334620
